The whole screen tested about 200,000 compounds, of which about 4,500 (2.2%) were called active. Inconclusive results, whose numbers are uncertain, are shown with a selection of clear calls. Calls come from the whole dose curve; as a rule, active = well fitted inhibition curve with a large enough effect; inconclusive = small, poorly fitted or top-dose-only effect, or effect the other way; inactive = flat fitted curve, though single readings scatter. Potencies of inconclusive entries are doubtful fits and often do not repeat.
Target: Cruzipain (Trypanosoma cruzi) (UniProt P25779)
Sequence of UniProt P25779 (P25779 whole entry, looked up): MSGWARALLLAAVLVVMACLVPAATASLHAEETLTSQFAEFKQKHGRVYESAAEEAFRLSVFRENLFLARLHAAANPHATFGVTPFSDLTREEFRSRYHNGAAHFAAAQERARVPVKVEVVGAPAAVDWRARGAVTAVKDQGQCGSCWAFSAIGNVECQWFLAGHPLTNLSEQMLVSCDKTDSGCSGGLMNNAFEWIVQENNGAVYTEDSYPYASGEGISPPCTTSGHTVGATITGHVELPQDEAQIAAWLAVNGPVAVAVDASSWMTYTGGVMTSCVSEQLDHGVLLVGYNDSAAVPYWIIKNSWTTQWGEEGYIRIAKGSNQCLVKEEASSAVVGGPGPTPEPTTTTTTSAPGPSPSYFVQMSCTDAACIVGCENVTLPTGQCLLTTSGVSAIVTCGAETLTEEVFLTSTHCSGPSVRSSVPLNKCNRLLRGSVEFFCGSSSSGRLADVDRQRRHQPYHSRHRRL
Assay: qHTS Assay for Promiscuous and Specific Inhibitors of Cruzain (without detergent); note: nearly all actives have a fitted effect of over 40% in size;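 for max response, negative = inhibition: plate controls were enzyme without inhibitor for no effect and buffer without enzyme for full effect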
Conditions: purified cruzain, Z-FR-AMC fluorescence, no detergent
Summary of the method: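 Purified cruzain at 1.5 nM, pre-incubated 15 min with compound at room temperature in 100 mM sodium acetate pH 5.5, 5 mM DTT, 0.00005% Triton X-100. Reaction started with 2 uM Z-FR-AMC; AMC fluorescence increase over 60 s gives rate.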
Potency is the fitted concentration of half-maximal effect; tags give direction and shape of the fitted curve.

Row | Structure (SMILES) | max response, negative = inhibition | Potency
1 | CCOc1ccc(C2Nc3ccccc3-c3nnc(SCc4ccccc4)nc3O2)cc1OC (stereo unspecified) | inactive: 5.28% | 
2 | CSc1nsc(SCC(=O)Nc2nc3ccc(C)cc3s2)n1 |  | inconclusive: 31.6 µM [inhibitor, single point]
3 | COC(=O)c1sc2ccccc2c1NC(=O)c1ccc(S(=O)(=O)N2CC(C)CC(C)C2)cc1 (stereo unspecified) |  | inconclusive: 39.8 µM [inhibitor, single point]
4 | O=C(NC(=S)Nc1ccc(N2CCOCC2)c(Cl)c1)C(c1ccccc1)c1ccccc1 |  | inconclusive: 25.1 µM [inhibitor, single point]
5 | CCC1CSC(Nc2ccc(C(=O)/C=C/c3ccc(Br)cc3)cc2)=N1 (stereo unspecified) |  | active: 25.1 µM
6 | COc1ccc(/C=C/C(=O)Nc2c(C)nn(C)c2C)cc1COc1ccc(Br)cc1 |  | inconclusive: 31.6 µM [activator, single point]
7 | CCCCC[C@H](O)/C=C/[C@@H]1[C@@H](CCCCCCC(=O)O)[C@@H](O)C[C@H]1O |  | inconclusive: 25.1 µM [activator, single point]
8 | CC(=O)C(C(C)=O)c1c(Cl)c(O)c(O)c2c(C(=O)c3ccccc3)coc12 |  | inconclusive: 31.6 µM [inhibitor, single point]
9 | O=c1oc2cc(OCc3c(F)c(F)c(F)c(F)c3F)ccc2cc1-c1ccccn1 |  | inconclusive: 39.8 µM [inhibitor, single point]
10 | COc1cc(C(=O)Nc2ccc3oc(-c4ccccc4)nc3c2)cc(OC)c1OC |  | inconclusive: 25.1 µM [activator, partial curve]
11 | Oc1ccc(CN2CCCc3ccccc32)c2cccnc12 |  | active: 25.1 µM
12 | CCN(CC)c1ccc(NC(=O)COc2ccccc2C#N)cc1S(=O)(=O)Nc1ccc(OC)cc1 |  | inconclusive: 31.6 µM [inhibitor, single point]
13 | Cc1cc(C)cc(OC(=O)c2snnc2C)c1 | inactive: -12.1% | 
14 | CCOc1ccc(S(=O)(=O)N2CCN(c3c(C)cccc3C)CC2)c2ccccc12 |  | inconclusive: 7.94 µM [inhibitor, single point]
15 | CCOC(=O)c1cnc2cc(-c3ccc(Cl)cc3)nn2c1N |  | active: 10 µM
16 | CCOC(=O)c1ccc(N2CSC3=C(C#N)C(c4cccs4)CC(=O)N3C2)cc1 (stereo unspecified) | inactive: -16.4% | 
17 | CCOC(=O)c1c(N2C(=O)C3C4C=CC(C4)C3C2=O)sc2c1CCC(C)C2 (stereo unspecified) |  | inconclusive: 39.8 µM [activator, single point]
18 | CC(=O)Oc1ccc(C(=O)Nc2cc(NC(=O)c3ccc(OC(C)=O)cc3)cc(C(=O)NC(C)(C)C)c2)cc1 |  | inconclusive: 39.8 µM [activator, single point]
19 | COc1ccc(NCc2cc3cc4c(cc3n(CC(=O)Nc3ccc(C)cc3)c2=O)OCO4)cc1 |  | active: 20 µM
20 | COc1ccc(C)cc1S(=O)(=O)N1CCN(S(=O)(=O)c2cc(C)ccc2OC)CC1 |  | inconclusive: 39.8 µM [activator, single point]
21 | COc1ccc(C2(CNC(=O)C(c3ccccc3)c3ccccc3)CCOCC2)cc1OC |  | inconclusive: 39.8 µM [activator, single point]

Row | Structure (SMILES) | max response, negative = inhibition | Potency
22 | COC(=O)c1[nH]c2c(c1C)C(=O)CC(c1ccc(C)cc1)C2 (stereo unspecified) |  | inconclusive: 31.6 µM [inhibitor, single point]
23 | CCOc1ccc(NC(=O)c2ccc(-c3nc(COc4ccccc4)c(C)o3)cc2)cc1 | inactive: 4% | 
24 | COC(=O)CNC(=O)C1(C)C=CCN1C(=O)c1ccccc1 (stereo unspecified) |  | inconclusive: 6.31 µM [activator, single point]
25 | CC(C)OC(=O)CSc1nnc(CNc2ccc(Cl)cc2)n1Cc1ccccc1 |  | inconclusive: 25.1 µM [activator, single point]
26 | CCCCCCc1cc2cc(C(=O)Nc3ccccc3OC)c(=O)oc2cc1O |  | inconclusive: 5.01 µM [inhibitor, single point]
27 | Cc1cnc(C(=O)OCC(=O)Nc2oc(-c3ccccc3)c(-c3ccccc3)c2C#N)cn1 |  | inconclusive: 39.8 µM [activator, single point]
28 | Cc1ccc(CNC(=O)c2ccc(-n3cnc4cccnc43)cc2)cc1 |  | inconclusive: 39.8 µM [activator, single point]
29 | Cc1ccc(NC(=O)/C(C#N)=C/c2cc(C)n(-c3ccc(F)cc3)c2C)cc1C | inactive: -0.757% | 
30 | CCc1ccc(NC(=O)Cn2c3ncccc3c(=O)n2-c2ccc(C)c(C)c2)cc1 | inactive: 4.58% | 
31 | CCCCCCc1cc2cc(S(=O)(=O)c3ccc(Cl)cc3)c(=O)oc2cc1O |  | active: 12.6 µM
32 | O=C(N/N=C\c1ccc(CN(Cc2ccc(Cl)cc2)S(=O)(=O)c2ccccc2)o1)C(=O)Nc1ccc(F)cc1 |  | active: 7.94 µM
33 | Cc1ccc(-c2nc(-c3cc4cccc(OCc5cccc(C)c5)c4oc3=O)no2)cc1 |  | inconclusive: 20 µM [inhibitor, partial curve]
34 | CCN(CC)c1ccc(C(=O)N2CCC(c3c[nH]c4ccccc34)(c3c[nH]c4ccccc34)CC2)cc1 |  | active: 10 µM
35 | O=C(CN(C(=O)c1ccc(Cl)cc1)C1CCCCC1)Nc1ccc(Cl)c([N+](=O)[O-])c1 |  | inconclusive: 25.1 µM [inhibitor, single point]
36 | Fc1ccc(CNc2ccc(CNc3ncn[nH]3)cc2)cc1 | inactive: -4.9% | 
37 | CC(NC(=O)Nc1cc(Cl)ccc1Cl)c1c(-n2cccc2)sc2c1CCCC2 (stereo unspecified) | inactive: 0.684% | 
38 | CCOC(=O)Cn1nnnc1CN(Cc1ccccc1)Cc1cc2cc(CC)ccc2[nH]c1=O |  | inconclusive: 31.6 µM [activator, single point]
39 | CCCCC(c1nnnn1CC1CCCO1)N1CCN(c2nc3ccccc3s2)CC1 (stereo unspecified) |  | inconclusive: 31.6 µM [activator, single point]
40 | Cc1cccc(N2CCN(C(=O)C3CCCN(S(=O)(=O)c4cnc[nH]4)C3)CC2C)c1 (stereo unspecified) |  | inconclusive: 25.1 µM [activator, single point]
41 | CCN(C(=O)c1cc2c(s1)-c1ccccc1OC2)c1cc(Cl)ccc1OC | inactive: -7.82% | 

From PubChem BioAssay AID1476 (National Center for Advancing Translational Sciences (NCATS), 2009)
